Measured values from PubChem BioAssay AID1645882 (National Center for Advancing Translational Sciences (NCATS), 2021).
About 120 (0.75%) of roughly 16,000 compounds were called active. About 4% were inconclusive and are not listed. Calls come from the whole dose curve; as a rule, active = well fitted inhibition curve with a large enough effect; inconclusive = small, poorly fitted or top-dose-only effect; inactive = no such curve, though single readings can be large or run the other way. Some of the results follow.

What follows are compounds tested against Rap guanine nucleotide exchange factor 3 (Homo sapiens) (UniProt O95398) (assay: Validation qHTS for antagonist of cAMP-regulated guanine nucleotide exchange factor 3 (EPAC1)). Details: EPAC1 Rap1B-BODIPY-GDP exchange, fluorescence; series mostly up to 150 µM; activity change, negative = inhibition: at the top concentration.
How it was run: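 EPAC1 (100 nM) mixed with 250 nM RAP1B-BODIPY-GDP and 50 uM GDP; compounds in concentration series, 5 min at room temperature. Fluorescence (ex 480/em 540 nm) read every 5 min for 30 min; normalized to ATA control and DMSO.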
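Note: plate controls were DMSO for no effect and ATA control for full effect; nearly all actives have a fitted effect of over 75% in size.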

Chain of UniProt O95398 (O95398 whole entry, looked up): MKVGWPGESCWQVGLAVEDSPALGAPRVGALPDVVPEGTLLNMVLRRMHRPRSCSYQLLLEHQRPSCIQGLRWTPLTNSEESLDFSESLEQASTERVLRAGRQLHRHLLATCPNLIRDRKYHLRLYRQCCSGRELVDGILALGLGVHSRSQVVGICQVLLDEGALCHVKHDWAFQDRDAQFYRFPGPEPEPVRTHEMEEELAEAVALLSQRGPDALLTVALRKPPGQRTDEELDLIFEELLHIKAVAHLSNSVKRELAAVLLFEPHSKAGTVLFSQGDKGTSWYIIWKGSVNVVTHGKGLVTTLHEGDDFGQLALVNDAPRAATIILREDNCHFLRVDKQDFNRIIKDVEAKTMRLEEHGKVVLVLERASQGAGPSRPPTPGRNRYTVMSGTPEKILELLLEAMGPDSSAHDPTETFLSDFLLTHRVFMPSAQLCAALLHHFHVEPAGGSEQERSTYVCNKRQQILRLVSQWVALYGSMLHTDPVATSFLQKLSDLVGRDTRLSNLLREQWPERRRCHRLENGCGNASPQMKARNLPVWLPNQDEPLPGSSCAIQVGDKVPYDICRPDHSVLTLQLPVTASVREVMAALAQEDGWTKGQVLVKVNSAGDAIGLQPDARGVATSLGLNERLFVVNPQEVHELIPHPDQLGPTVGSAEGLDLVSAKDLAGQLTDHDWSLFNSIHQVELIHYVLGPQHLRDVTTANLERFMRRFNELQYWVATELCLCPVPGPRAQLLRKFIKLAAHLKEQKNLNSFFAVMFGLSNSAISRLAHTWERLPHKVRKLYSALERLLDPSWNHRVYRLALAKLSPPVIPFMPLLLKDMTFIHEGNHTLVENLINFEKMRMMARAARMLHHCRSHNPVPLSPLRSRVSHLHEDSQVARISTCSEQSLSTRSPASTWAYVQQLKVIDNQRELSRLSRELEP

Activity change, negative = inhibition, inactive:
CO/N=C1\CN(c2nc3c(cc2F)c(=O)c(C(=O)O)cn3C2CC2)CC1CN (configuration not stated) 21.3%
Clc1ccccc1C(c1ccccc1)(c1ccccc1)n1ccnc1
NC(=O)NO
O=S(=O)(c1ccccc1)N1CCC2(CC1)CN(C(c1ccccc1)c1ccccc1)C2 -6.86%
COc1ccc2cc(CNCc3ccccc3Cl)c(N3CCCC(CO)C3)nc2c1 (configuration not stated) 12.3%
COc1ccc(CN2CCOc3ccc(C(O)c4cccnc4)cc3C2)c(OC)c1OC (configuration not stated) 9.63%
Cn1c(=O)c(-c2ccc(F)cc2)nc2cnc(Oc3ccccc3)nc21 8.74%
O=C(Nc1ccccc1)N1CC2(CCN(C(=O)c3ccco3)CC2)C1 17.2%
COC1C(O)C(CO)OC1n1c(Br)nc2c(=O)[nH]c(N)nc21 (configuration not stated) -17.2%
CCCCCCCCCCCCCCCCCC[N+](C)(C)CCC[Si](OC)(OC)OC 29.3%
O=C(NCC1CCC2(CCN(Cc3cccn3-c3ccc(Cl)cn3)CC2)O1)c1ccccc1 (configuration not stated) 6.96%
CN1CCC[C@H]1c1cccnc1
O=c1c(-c2cc(F)cc(F)c2)nc2cnc(Oc3ccccc3)nc2n1C[C@H]1CCCO1 7.05%
COCCn1c(=O)c(-c2ccc(Cl)cc2)nc2cnc(Oc3ccccc3)nc21 7.46%
COc1ccc(-n2c(=O)c(-c3ccc(Cl)cc3)nc3cnc(N(C)C)nc32)cc1 54.6%
CCCC(C(=O)OCCN(CC)CC)(c1ccccc1)c1ccccc1
CN(C)c1ncc2nc(-c3cccs3)c(=O)n(CCc3ccccc3)c2n1 5.01%
CC(=O)CCC(=O)N1CCC(n2c(C3CCCO3)nc3cc(C(F)(F)F)ccc32)CC1 (configuration not stated) 8.38%
OC(c1cccnc1)c1ccc2c(c1)CN(Cc1cn(-c3ccccc3)nc1-c1ccccc1)CCO2 (configuration not stated) -13.6%
N#C/C(=C\c1cc(Cl)cc(Cl)c1)c1cccnc1
COc1ccccc1N1CCN(C[C@@H](C(=O)NC(C)(C)C)c2ccccc2)CC1 -11.5%
CCOC(=O)c1ccc(OC(=O)CCCCCN=C(N)N)cc1
CCCCCCCCCCCCCCCC(=O)C1=C(O)C(CO)OC1=O (configuration not stated) 11.8% [at 201 µM]
C=CC[N@@+]12CC[C@@]34c5ccccc5N5/C=C6/[C@H]7C[C@H]8[C@@]9(CC[N@@+]8(CC=C)C/C7=C/CO)c7ccccc7N(/C=C(/[C@@H](C[C@@H]31)/C(=C\CO)C2)[C@H]54)[C@@H]69 -5.3% [at 75.8 µM]
CC(C)=CCC/C(C)=C/COc1ccc2ccc(=O)oc2c1 -20.7%
CCCSS/C(CCO)=C(\C)N(C=O)Cc1cnc(C)nc1N 19%
O=C(C1CCOC1)N1CCOc2ccc(CN3CCC(Oc4cccnc4)CC3)cc2C1 (configuration not stated) 7.19%
COc1cc(CC(=O)O)ccc1O
O=C(c1cccc(F)c1)N1CCC2(CC1)CCN(c1ccc(-c3ccccc3)cc1)CC2 27.5%
O=c1[nH]c2cc(Cl)ccc2c(O)c1-c1ccc(Oc2ccccc2)cc1 20.5% [at 75.8 µM]
COc1c(OC)c2occc2c2oc(=O)ccc12 10.9%
C=CCN1CCCC1CNC(=O)c1cc(S(N)(=O)=O)cc(OC)c1OC (configuration not stated) 8.39%
Cc1nc(NCc2cnn(C)c2C)sc1-c1ccn(CC2COc3ccccc3O2)n1 (configuration not stated) 12.6%
Cn1cccc1C(=O)N1CCC[C@@]2(CCN(c3ccccc3)C2)C1 23.8%
OC1OC[C@@H](O)[C@H](O)[C@@H]1O (some centres not stated) 15.9%
N#Cc1ccc(CN2CCCC3(CCNCC3)C2)cc1 10.9%
O=C(NCC1CCC2(CCN(Cc3ccccc3O)CC2)O1)C1CCCO1 (configuration not stated) 11.7%
O=C(O)c1cc(O)c(O)c(O)c1
CC(C)=CCc1c(O)cc(C)oc1=O 4.52%
Nc1ccc(N=Nc2ccccc2)c(N)n1
CCN(CC)C(=O)N1CCN(C)CC1
C/C=C1\C2C=C(C)C[C@@]1(N)c1ccc(=O)[nH]c1C2 12.1%
O=C1CCN(Cc2ccc([N+](=O)[O-])cc2)CCN1[C@H](CO)c1ccccc1 2.48%
COc1ccc(-n2c(=O)c(-c3cccs3)nc3cnc(N4CCNCC4)nc32)cc1 15.4%
COc1ccccc1-c1ccnc(-n2ncc(C(=O)NC(C)(C)CO)c2C2CC2)n1 3.03%
O=C(c1cnccn1)N1CCC2(CCCN(c3cccc(-c4ccccc4)c3)C2)CC1 12.2%
CCCCC#Cc1nc(NC)c2ncn([C@@H]3O[C@H](CO)[C@@H](O)[C@H]3O)c2n1 -0.318% [at 75.8 µM]
Cn1c2ccccc2c(=O)c2ccc(F)cc21 -12.9%
C[C@@H](CSc1ccc(Br)cc1)CN1CC[C@H](O)CCC1=O 11.7%
O=C(O)[C@@H]1C[C@H](CP(=O)(O)O)CCN1 8.63%
CC1=CC2C(=O)c3cccc(O)c3C(=O)C2C(O)=C1 (configuration not stated) 6.3%
O=P(O)(O)C(O)(Cc1cccnc1)P(=O)(O)O 21.3%
CC1O[C@@H](Oc2c(-c3ccc(O)c(O)c3)oc3cc(O)cc(O)c3c2=O)C(O)C(O)C1O (some centres not stated) 11%
COc1ccc(Oc2ncc3nc(-c4ccc(F)cc4)c(=O)n(C4CC4)c3n2)cc1 -0.125%
N[C@@H](Cc1ccc(F)cc1)C(=O)O -9.15% [at 75.8 µM]
O=C(Oc1ccccc1)N1CCC2(CCCN(c3ccccn3)C2)CC1 4.01%
CCN(CCCc1ccccc1)CCCc1ccccc1
CN(C)Cc1ccccc1-c1nccc(NC2CC2)n1 18.5%
Cc1c(C)c2c(c(C)c1O)CC[C@@](C)(CCC[C@H](C)CCC[C@H](C)CCCC(C)C)O2
O=C(CCN1CCN2CCCC2C1)N1c2ccccc2Sc2ccc(Cl)cc21 (configuration not stated) 13.6%
O=C(O)CCC(=O)C(=O)O (tested in a mixture with another compound) 16%
CCOC(=O)c1c(C)cc(O)c(C)c1O 6.88%
CC(CCc1ccc(O)cc1)NCC(O)c1ccc(O)cc1 (configuration not stated) 18.6%
O=[N+]([O-])c1ccc(Oc2ccc(N=C=S)cc2)cc1 -23.1%
CC[C@]1(O)C[C@@H]2CN(CCc3c([nH]c4ccccc34)[C@@](C(=O)OC)(c3cc4c(cc3OC)N(C)[C@H]3[C@@](O)(C(=O)OC)[C@H](OC(C)=O)[C@]5(CC)C=CCN6CC[C@]43[C@@H]65)C2)C1
CN(C)CCOC(c1ccccc1)c1ccccc1 (tested in a mixture with another compound) 20.4%
C=C(C)C1CC=C(C)CC1 (configuration not stated) 14.7%
